Reference: PMC12136788
Some of the results follow.

T1: UNK ZnF1-3 (human, UniProt Q9C0B0 31-174)
T1 sequence: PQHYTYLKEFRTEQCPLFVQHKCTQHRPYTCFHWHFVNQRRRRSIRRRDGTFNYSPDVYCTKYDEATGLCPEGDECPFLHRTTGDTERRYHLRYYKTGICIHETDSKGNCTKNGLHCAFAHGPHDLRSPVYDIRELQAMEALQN

B1: chr14:89338683:89338684:+_ENSG00000165533_ENST00000346301|hu_hu|hu_hu_hu_mus_False|68_68 (ssRNA)
RNA: GGGAGUUCUACAGUCCGACGAUCGUGGUUGUUGUGGACCAGGGCCAGCCUGAAGCAUUGGUGGGCCAAAUUUGUAUCUCCGAUUCCCACAGCUAUGUGCCCCAGGUUGUACCAGACAUCAGCUGCCUCUUCUUCAUUUUCAGCCAACAGAGGAUUGAGCAUCA
B2: chr5:128448638:128448639:+_ENSG00000066583_ENST00000173527|hu_mus|hu_hu_hu_mus_False|58_98 (ssRNA)
RNA: GGGAGUUCUACAGUCCGACGAUCGGCACUCGCCUUAAUUAGAUUCUGAAUUUCCUUGAACUUCGGGUGGUCUUUGUCAGCUACCAGCUGUAGGAGGACAGCCUCACUAGUGGUCACGAUGAUCCCAGUGCGGGCAAGACGCUCCAACAGAGGAUUGAGCAUCA
B3: chr3:32586495:32586496:-_ENSG00000144635_ENST00000273130|hu_hu|motif|central (ssRNA)
RNA: GGGAGUUCUACAGUCCGACGAUCUUUCUGUAAAGAAUCCAAAGCAGUCCAAGGCUUUGACAUGUCAACAACCAGCAUAACGGGAGUAUCCUUCAGAGAUACGGCAUCCAGUGAAAAUUUAAGGAGGCCUUUGUGAUAUAGGUCCAACAGAGGAUUGAGCAUCA
B4: 70229870_70231617_115_3pUTR_ENSG00000138346_ENST00000358410|human|control|control (ssRNA)
RNA: GGGAGUUCUACAGUCCGACGAUCCUGUGCUCAGAACUGUUCUUGGAAAGGAAGCUACCACUUUCUUCUGAAAUAGCUCCGCCGGCAGCUCCGCCUCCUCCCAAAAACUCUUCUCCAUCAGCAGCUCCAGUUCGUUCAGCUGCUCAACAGAGGAUUGAGCAUCA
B5: chr3:51263940:51263941:+_ENSMUSG00000063273_ENSMUST00000029303|mus_mus|motif|central (ssRNA)
RNA: GGGAGUUCUACAGUCCGACGAUCGUAAAAUGGAUGCUGUCGAAGUACAUCUUCUAGUUUUAAUAAGUCCACAUAUGAUCGGAGGGUGAUCUUCCUCAUACAGUAUGUAUGAAAGUCAAACUGGUCAUCGGUGAUUUCUAUAAACAACAGAGGAUUGAGCAUCA
B6: chr8:29927545:29927546:-_ENSG00000133872_ENST00000521265|hu_hu|motif|central (ssRNA)
RNA: GGGAGUUCUACAGUCCGACGAUCAGGACUCAUAGCCUUCACAGCUCACCACAGUUUUUCCAAAUUUGUAUGCAAUAUCGGAGUCCGUCUUACAUUCCCACUGUACAUCAUACCCAUCCCAGCCUUUGUUCUGACACUGUAUGACAACAGAGGAUUGAGCAUCA
B7: chr3:119450855:119450856:-_ENSMUSG00000028134_ENSMUST00000029780|mus_hu|mus_mus_mus_hu_False|8_48 (ssRNA)
RNA: GGGAGUUCUACAGUCCGACGAUCUGUGGUGCCACUAAGAGGAGUAUUUGCUGUCUGGACAGCUGUCACAGCUUGAAGAACUGCCUGCGCACGUUGGUUUAAUGUAUUAUCUGUCUUUAGUUCUUUGUGAUUGGAGUACUGGAUCAACAGAGGAUUGAGCAUCA
B8: chr10:22824096:22824097:-_ENSG00000150867_ENST00000376573|hu_mus|FALSE|FALSE (ssRNA)
RNA: GGGAGUUCUACAGUCCGACGAUCUUAUUGGGAUGACAGAGAUGGUUACAGACAAAAACCAAAGCAGUUUUGUAAACUUCUAAAAGCAUACAGAUUGGCCACAGAGGAAAUGGUUACUCAGAUCAUGUAUAUGUACCUUCAUUUCAACAGAGGAUUGAGCAUCA
B9: chr19:46159329:46159330:+_ENSMUSG00000015176_ENSMUST00000165017|mus_mus|motif|central (ssRNA)
RNA: GGGAGUUCUACAGUCCGACGAUCUACAACAGUCAAGUUGUUGCAAAAUGUCUGUCAGAAAAGCUUACUUCGAAAUUAAAACGGAAAGUACUGUAAACAUGUAGCAGUAACAGCUACCAAGAACAAAACAAAGACAGCUGCAUGCAACAGAGGAUUGAGCAUCA
B10: chr6:50805741:50805742:+_ENSG00000008196_ENST00000393655|hu_hu|FALSE|FALSE (ssRNA)
RNA: GGGAGUUCUACAGUCCGACGAUCCAGGGAGGUGAGUAACGUGACAUUUGCUGCUUUGCGCCUGCCCGCGGGUAAAUUCAAACCGAUUUUUUCUAGCCUUUCUCGCAAAGAUCUCCCCCCAUUUUUCGAUUUGGCUCUUCUGAGCAACAGAGGAUUGAGCAUCA
B11: chr6:30688276:30688277:+_ENSG00000196230_ENST00000327892|hu_mus|FALSE|FALSE (ssRNA)
RNA: GGGAGUUCUACAGUCCGACGAUCCCGAUCUGGUUGCCACACUGUCCGGCCUGGAUGUGCACGAUUUCCCUCAUGGCUACGGUUUACUGAAAUAAUUGUUUUUGAUGGUUCCAAUGUAGGUACCGAACAAGAAAGAAAAUUAAGCAACAGAGGAUUGAGCAUCA
B12: 149274316_149275877_704_3pUTR_ENSMUSG00000037887_ENSMUST00000039926|mouse|control|control (ssRNA)
RNA: GGGAGUUCUACAGUCCGACGAUCGGAUGGACAGGAAGCUGUCUGCUGCCAGCACGCUGGCAUCUCGUGUGCUCUGGUCAUACACCACUACAUCCUGUGGUUCUGUGGCAUCCACCUGGCUCCGUGUAGCAGGCUGGAUAAGCUCAACAGAGGAUUGAGCAUCA
B13: chr1:130260868:130260869:-_ENSMUSG00000026356_ENSMUST00000027602|mus_mus|motif|central (ssRNA)
RNA: GGGAGUUCUACAGUCCGACGAUCCGUGAGUCGUUUGGGGUCACGAGGGAACAUUGAGGUCUGGCGUACGUUAUGCAAUCCGGAAAACAGCAUCGUCACCCUUUCCAGCCCAAUGCCACCACCAGCAUGAGGAGGAGCUCCAAACAACAGAGGAUUGAGCAUCA
B14: chr11:118960446:118960447:+_ENSG00000256269_ENST00000278715|hu_hu|FALSE|FALSE (ssRNA)
RNA: GGGAGUUCUACAGUCCGACGAUCGUGAAAGACAACAGCAUCAUGAGGGUUUUCCCGCUUGCAGAUGGCUCCGAUGGUGAAGCCAGGAGGAAGCACAGUGGGCAGGUCCUUCAAGGAGUGAACAACCAGGUCCACUUCAUUCUUCAACAGAGGAUUGAGCAUCA

Biological target: T1, UNK ZnF1-3
Test: nsRBNS (natural sequence RNA bind-n-seq); RBNS binding buffer (assumed for nsRBNS): 25 mM Tris pH 7.5, 150 mM KCl, 3 mM MgCl2, 0.01% Triton X-100, 500 ug/ml BSA, 20 U/ml SUPERase-In, 4 C; UNK is unkempt and MSI1 is Musashi-1; names of the RNAs are library labels; protein concentration not given here; high values mean tight binding

Binder | binding signal [enrichment R]
B1 | 0.724
B2 | 0.785
B3 | 1.68
B4 | 0.761
B5 | 0.993
B6 | 0.751
B7 | 0.845
B8 | 1.58
B9 | 1.44
B10 | 1.13
B11 | 1.42
B12 | 0.79
B13 | 1.2
B14 | 0.794
